Experimental data as given in the RNAGym collection of RNA variant scans (doi:10.1093/nar/gkz1192).
The source gives no read counts; variants with many changes may rest on few reads.

B1: CPEB3 Ribozyme (parent)
chain: UAACAGGGGGCCACAGCAGAAGCGUUCACGUCGCAGCCCCUGUCAGAUUCUGGUGAAUCUGCGAAUUCUGCUGUAUAUCUC

Variants of: B1
Assay: self-cleavage, relative activity (ratio to wild type); higher = more cleavage; in vitro, sequencing
Outline: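 Libraries of CPEB3 self-cleaving ribozyme mutants came from rounds of error-prone PCR and carried barcodes, which DNA sequencing matched to variants. In vitro transcription used T7 RNA polymerase at 37°C for 5 hours, with a further 15 min in DNase I before EDTA stopped the reaction; the ribozymes cleaved during both steps. The RNA was reverse transcribed with template switching and sequenced on Illumina. Relative activity is the cleaved/total read fraction of a variant divided by that of the unmutated ribozyme, averaged over three batches with at least 5 reads.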

Row | Variant | self-cleavage
1 | UAACGGGGGGCCACAACGGAAGCGUUCACGUCGCAGCCCCGGUCAGAUUCUGGUGAAUCUGCGAACUCUGCUGUAUAUCUC | 0.39
2 | UAACGGGGGCCCGCAGCGGGAGCGUUCACGUCGCAGCCCCUGUCAGAUUCUGGUGAAUCUGCGAUUUCUGCUGCAUAUCUC | 0.12
3 | UAACGGGGAGCCACAGCAGAAGCGUUCACGUCGCAGCCCCUGUCAGAUUCUGGCGAAUCUGCGAAUUCUGCUGUAUAUCUC | 0.53
4 | UAACGGGGGUCCACAGCGGAAGCGUUCACGUCGCAGACCCUGUCAGAUUCUGGUGAAUCUGCGAAUUCUGCUGUAUAUCUC | 0.1
5 | UAACGGGGUGCCACAGCAGAAGCGCUCACGUCGCAGCCCCUGUCAGAUCCUGGUGAAUCUGCGAAUUCUGCUGUAUACCUC | 0.06
6 | UAACGGGGUGCCACAGCAGAAGCGUUCGCGUCGCAGCCCCUGUCAGAUUCUGGUGAAUCUGCGAAUUCUGCUGUAUAUCUC | 0.27
7 | UAACGGGGUGCCACAGCAGAAGCGUUCACGUCGCAGCCCCUGUCAGAUUCUGGUGAAUCUGCGAAUUCUGCUGUAUAUCCC | 0.09
8 | UAACGGGGAGCCACAGCAGAAGCGUCCACGUCGCAGCACCUGUCCGAUUCUGGUGAAUCUGCGAAUUCUGCCGUAAAUCUC | 0.05
9 | UAACGGGGUGCCACAGCAGAAGCGUUCGCGUCGCAGCCCCUGUCAGAUUCUGGUGAAUCUGCGAAUUCUGCUUUAUAUCUC | 0.17
10 | UAACGGGGAGCCACAGCUGAAGCGUUCACGUCGCUGCCCCUGUCAGAUUCUGGUGAAUCUGCUAAUUCUACUGUAUAUCUC | 0.07
11 | UAACGGGGGGCCACAACAGAGGCGAUCACGUCGCAGCCCCUGUCAGAUUCCGGUGAACCAGCGAAUUCUGCUGUAUAUCUC | 0.08
12 | UAACGGGGAGCCACAGCAGAAGCGUUCACGUCGCAGCCCCUGUCAGAUUCUGGUGAAUCCGCGAAUUCUGCAGUAUAUCUC | 0.38
13 | UAACGGGGUGCCACAGCAGAAGCGUUCGCGUCGCAGCCCCUGUCAGAUUCUGGUGAAUCUGCGAAUUCAGCUGUAUAUCUC | 0.17
14 | UAACGGGGUGCCACAGCAGAAGCGUUCACGUCGCUGCCCCGGUCAGAUUCUGGUGAAUCUGCGAAUUCUGCUGUAUAUCUC | 0.47
15 | UAACGGGGUGCCACAGCAGAAGCGUUCACGUCGCGGCCCCUGGCAGAUUCCGGCGAGUCUGCGAAUUCUGCUGUAUAUCUC | 0.18
16 | UAACGGGGGGCCACAACAGGAGCGUUCACGCCGCAGCCCCUGUCAGAUUCUGGUGAAUCAGCGAAUUCUGCUGUAUAUCUC | 0.01
17 | UAACGGGGGACCACAGCAGAAGCGUUUACGUCGCAGCCCCUGUCAGAUUCUGGUGAAUCUGGGAAUUCUCCUGUAUAUCUC | 0.04

Row | Variant | self-cleavage
18 | UAACGGGGUGCCACGGCAGAAGCGUUCACGUCGCAGCCCCUGUCAGAUUCUGGUGAAUCUGCGAAUUCUGCUGUAUAUCUC | 0.21
19 | UAACGGGGUGCCACAGCGGAAGCGUUCACGUCGCAGCCCCUGUCAGAUUCUGGUGAAUCUGCGAAUUCUGCUGUACAUCCC | 0.07
20 | UAACGGGGGUCCACAGCAGAAGCGUUCUCGUCGCAGCUCCUGUCAGAUUCUGGUGAAUCUGCGAAUUCUGCUGUAUUUCUC | 0.42
21 | UAACGGGGAGCCACAGCAGAGGCGUUCACGUCGCAGCCCCAGCCAGAUUCUGGUGAAUCUGCGAAUUCCGCUGUAUAUCUC | 0.13
22 | UAACGGGGGACCACAGCAGAAGCGUUUACGUCGCAGCCCCUGUCAGAUUCUGGUGAAUCUGCGAAUUCUGGUGUAUAUCUC | 0.08
23 | UAACGGGGGGCCACAACAGAAGCGUUCACGUCGCAGCCCCUGUCAGAUCCUGGUGAAUCUGCGAAUUCUGCGGUAUAUCUC | 0.14
24 | UAACGGGGAGCCACAGCAGAAGCGUUCACGUCGCAGCCCCUGUCAGAUUCAGGUGAAUCUGCGAAUUCUGCUGUAUAUCUC | 0.3
25 | UAACGGGGGUCCACAGCAGAAGCGUUCACGUCGCAGCCCCUGCCAGAUUCAGGUGAAUCAGCGAAUUCUGCUGUAUAUCUC | 0.18
26 | UAACGGGGGCCCACAGCAGAAGCGUUCACGUCGCAGCCCCUGUCGGAUUCUGGUGAAUCUGCGAAUUCUGCUGUAUAACUG | 0.71
27 | UAACGGGGUGCCACAGCAGAGGCGUUCACGUCGCGGCCCCUGUCAGGUUCUGGUGAAUCUGCGAAUUCUGCUGUAUAUCAC | 0.17
28 | UAACGGGGAGCCACAGCAGAGGCGUUCACGUCGCAGCCCCUGUCAGAUUCUGGUGAAUCUGCGAAUUCCGUUGUAUAUCAC | 0.23
29 | UAACGGGGUGCCACAGCAGAAGCGUUCACGUCGCAGCCCCAGUCAGAUUCUGGUGAAUCUGCGAACUCUGCCGUAUAUCUC | 0.29
30 | UAACGGGGGUCCACAGCCGAAGCGUUCACGUCGCAGCCCCUGCCAGAUUCUGGUGGAUCUGCGAAUUCUGCUGUAUAACUC | 0.06
31 | UAACGGGGGACCACAGCAGUAGCGUUCACGCCGCAGCCCCUGUCAGAUUCUGGUGAAUCUGCGAAUUCUGCUGUAUAUCUC | 0.31
32 | UAACGGGGCGCCACAGCAGAAGCGUUCACGUCGCAGCCCAUGUCAGAUUCUGGUGAAUCUGCGAAUUCAGCUGUAUAUCUC | 0.27
33 | UAACGGGGAGCCACAGCAGAAGCGUUCACGUCGCAGCCCCUGCCAGACUCUGGUGAAUCUGCGAAUUCUGCUGUAUAUCUC | 0.09
34 | UAACGGGGGACCACAGCAGAAGCGUUCACGUCGCAGCCCCUGUCAGAUUCUGGUGAAUCUGCGGAUUCUGCUGUAUAUCUC | 0.54
